± gives the standard deviation of the averaged measurements. In all, about 33,000 sequences were measured (“E-score (dimensionless, -0.5 to 0.5)”: median about -0.046, highest 2% from about 0.36 on). Some of the results follow.
Tested on: T1, SpTbr T-box DNA-binding domain (GST fusion)
T1 sequence: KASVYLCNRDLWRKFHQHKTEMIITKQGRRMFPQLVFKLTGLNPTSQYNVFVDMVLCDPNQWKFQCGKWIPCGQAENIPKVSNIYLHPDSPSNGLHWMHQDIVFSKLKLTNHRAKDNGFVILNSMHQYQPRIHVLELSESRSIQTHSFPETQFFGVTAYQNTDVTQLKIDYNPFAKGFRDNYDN
Assay: PBM E-score of 8-mer (E-score (dimensionless, -0.5 to 0.5)); Tbr is Tbrain of the sea star Patiria miniata (Pm) or the sea urchin Strongylocentrotus purpuratus (Sp); higher = stronger binding preference; most listed sequences are background and not binding sites
Conditions: the construct has about 5 more residues each side
Summary of the method: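 Expression of GST-fused Tbr T-box DNA-binding domains, each holding the full T-box plus roughly five flanking residues, was carried out in BL21 E. coli at 20 °C, with purification by glutathione affinity chromatography. Universal Agilent arrays made double-stranded by primer extension were incubated with the protein at 200 nM in PBS (pH 7.5), then scanned and quantified. All ungapped 8-mers were scored from probe intensities, and each received an enrichment E-score from the Universal PBM Analysis Suite, averaged over duplicate arrays.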

Row | Sequence | PBM E-score of 8-mer
1 | ATCTCTGA | -0.279 ± 0.01
2 | CCTAACCG | -0.163 ± 0.039
3 | CAAAACGG | -0.14 ± 0.012
4 | GCTCTTCC | -0.168 ± 0.034
5 | AAACCGAC | 0.0439 ± 0.026
6 | ACTTGAAG | 0.027 ± 0.02
7 | ATTCATCG | 0.0084 ± 0.064
8 | CGTGCCGC | 0.0419 ± 0.045
9 | ACACTGAG | 0.125 ± 0.011
10 | CAGAAACA | -0.0863 ± 0.084
11 | GCAAACTA | -0.0056 ± 0.022
12 | AATCCGAT | -0.194 ± 0.02
13 | GGACTGAA | -0.107 ± 0.024
14 | CCAGTGTC | 0.0479 ± 0.008
15 | AGCGGTTC | -0.0379 ± 0.0027
16 | ACACCTAA | 0.4637 ± 0.0015
17 | ACGGAATG | -0.0727 ± 0.079
18 | ACAGATGA | -0.0178 ± 0.031
19 | AACACCCT | 0.4 ± 0.0049
20 | ACGGGGAA | -0.205 ± 0.012
21 | AAACCAGA | -0.128 ± 0.093
22 | AGCGATGC | -0.177 ± 0.048
23 | GCGTGGCC | 0.0846 ± 0.069
24 | ATTGGTAA | -0.218 ± 0.016
25 | AGAATCAT | -0.0611 ± 0.044

Row | Sequence | PBM E-score of 8-mer
26 | CTCGAGCA | -0.0926 ± 0.029
27 | CGGCCTTA | -0.139 ± 0.025
28 | ACAAGTGC | 0.281 ± 0.015
29 | CTTCATCC | -0.148 ± 0.0056
30 | TTAATCAA | -0.0414 ± 0.051
31 | GTACTATA | -0.112 ± 0.079
32 | CCGAGACC | -0.241 ± 0.13
33 | CAGGAAAC | -0.0905 ± 0.009
34 | AACTTACG | -0.0812 ± 0.018
35 | AAGTTGAC | 0.187 ± 0.02
36 | CATCACCC | 0.258 ± 0.022
37 | GGAGCAAC | 0.0231 ± 0.049
38 | ACAGCGCT | 0.0204 ± 0.069
39 | CAAAAGCA | -0.12 ± 0.073
40 | GTGAAAAC | 0.337 ± 0.056
41 | AGCGAAGC | -0.0769 ± 0.11
42 | GGGAAACC | -0.113 ± 0.069
43 | AAATCCGG | -0.116 ± 0.074
44 | GAACCGAA | -0.101 ± 0.0094
45 | AGGTAAAT | -0.154 ± 0.027
46 | CGGGGCTC | -0.0908 ± 0.071
47 | GGTGATAA | 0.37553 ± 0.00031
48 | CTAAACAA | 0.00197 ± 0.031
49 | ATCCCCCG | -0.0799 ± 0.04
50 | ACCAACCT | 0.0223 ± 0.055

Row | Sequence | PBM E-score of 8-mer
51 | CGAGGGGA | -0.0885 ± 0.018
52 | CGTTAATC | 0.117 ± 0.0075
53 | GCTATTAC | 0.0126 ± 0.066
54 | GGGAATAC | -0.219 ± 0.055
55 | GGATGCCA | -0.117 ± 0.05
56 | GGTCAGTA | -0.255 ± 0.048
57 | ACAGTCTA | -0.06 ± 0.06
58 | CCACTTGA | 0.109 ± 0.013
59 | TAGCACTA | 0.252 ± 0.095
60 | TGCGGAAA | 0.0644 ± 0.12
61 | CACTAGAG | 0.00017 ± 0.027
62 | AGTCGCGG | 0.0304 ± 0.054
63 | ACGTTACA | -0.0641 ± 0.0049
64 | AACAGCGG | -0.0191 ± 0.046
65 | TCTCGAAA | -0.0659 ± 0.035
66 | CGGGCTAG | -0.199 ± 0.017
67 | GGTGGAAC | -0.00193 ± 0.025
68 | AAATTGTC | 0.0694 ± 0.077
69 | AAGTCCCG | -0.114 ± 0.021
70 | ACGAGAAA | -0.0381 ± 0.012
71 | AGCTTTGC | 0.0173 ± 0.0045
72 | AAGTTAAT | -0.0442 ± 0.027
73 | ACATATCC | -0.0962 ± 0.058
74 | GAGCCTCC | -0.253 ± 0.064
75 | TAGATGCA | -0.264 ± 0.024

Row | Sequence | PBM E-score of 8-mer
76 | ACTGTTCC | -0.049 ± 0.031
77 | CCCTTCCA | -0.0582 ± 0.031
78 | GATTGAAC | -0.131 ± 0.0084
79 | ACGATATC | 0.13 ± 0.023
80 | ACCCAACT | -0.0208 ± 0.073
81 | AACCCCGC | 0.136 ± 0.034
82 | AATGCTCG | -0.0892 ± 0.013
83 | CAAAAACA | 0.0761 ± 0.022
84 | AATTGTTA | 0.149 ± 0.099
85 | CAATAAAC | -0.024 ± 0.052
86 | ACCGATCA | -0.0145 ± 0.012
87 | ACTTTGCA | 0.109 ± 0.018
88 | CCGTGTTC | 0.00821 ± 0.049
89 | TACTCAAA | -0.0413 ± 0.031
90 | CCAGCCTA | -0.0578 ± 0.023
91 | ATTGGTAC | -0.114 ± 0.015
92 | TACATGCA | -0.27 ± 0.025
93 | AACGAATC | -0.0552 ± 0.047
94 | AGTCCCAT | -0.147 ± 0.05
95 | TCTGTCCA | -0.147 ± 0.011
96 | GAACCCTA | -0.0827 ± 0.012
97 | AGAGTTTC | -0.243 ± 0.052
98 | CAGGAGTA | -0.192 ± 0.033
99 | CGGATTTC | -0.158 ± 0.053
100 | TCAGGGGA | -0.248 ± 0.0085

Row | Sequence | PBM E-score of 8-mer
101 | AAATCTCG | 0.0364 ± 0.078
102 | CCCCGCAA | -0.0604 ± 0.009
103 | CCACCTTC | 0.2634 ± 0.0018
104 | GGTTCGAA | -0.0472 ± 0.014
105 | CAGTGAGG | 0.0108 ± 0.00017
106 | CCTCTCAA | 0.0499 ± 0.1
107 | ACAAGCAG | -0.0984 ± 0.071
108 | CACTTGCG | 0.387 ± 0.026
109 | ATGTGCGC | 0.211 ± 0.054
110 | CAGTGGAG | -0.0191 ± 0.077
111 | CGGCTTCA | -0.133 ± 0.076
112 | AGGCGTAG | 0.0197 ± 0.011
113 | CGCTCGGC | -0.17 ± 0.043
114 | CCCGACCA | -0.0933 ± 0.078
115 | GTCCGCAC | 0.295 ± 0.027
116 | ACGGACGT | -0.0499 ± 0.034
117 | CAATTGCA | 0.27 ± 0.0096
118 | GATGAGCA | -0.0282 ± 0.0047
119 | AATAGAAA | -0.0389 ± 0.016
120 | CACAAAGC | 0.0508 ± 0.018
121 | GTTGATTA | 0.0542 ± 0.058
122 | CAGCACAA | -0.172 ± 0.0041
123 | ACGGGGCT | -0.0853 ± 0.058
124 | CTAATCAG | -0.124 ± 0.0089
125 | CCGCCATC | -0.0442 ± 0.011

Row | Sequence | PBM E-score of 8-mer
126 | TATCTACA | -0.0305 ± 0.072
127 | GAGGTAAC | -0.112 ± 0.0074
128 | ACAAGAAC | -0.128 ± 0.04
129 | CGCGGCCA | 0.0902 ± 0.1
130 | GTAGCTTA | -0.0295 ± 0.0053
131 | CATCCTCC | -0.155 ± 0.0072
132 | AGAACTTG | -0.15 ± 0.011
133 | AATGGCTG | -0.183 ± 0.012
134 | CAACCCTA | 0.128 ± 0.086
135 | ATAGTCGC | 0.168 ± 0.028
136 | ATGTGAGA | 0.414 ± 0.018
137 | CGTGGCTC | -0.00485 ± 0.12
138 | ATTACTCG | 0.0185 ± 0.057
139 | ATACTGTG | 0.117 ± 0.056
140 | ATCATTAC | -0.0536 ± 0.085
141 | CCGCATTC | -0.08 ± 0.036
142 | ACCACTCA | 0.139 ± 0.036
143 | CCTCGCCC | 0.0378 ± 0.071
144 | AAGCCAGC | -0.161 ± 0.018
145 | CTTCTATC | -0.157 ± 0.054
146 | CCGGCCTA | -0.0607 ± 0.018
147 | GATTAGAC | -0.114 ± 0.01
148 | GCACATGC | 0.115 ± 0.064
149 | GGTGCTAC | 0.42 ± 0.007
150 | CCGGATTA | -0.116 ± 0.0066

Row | Sequence | PBM E-score of 8-mer
151 | AGCGGACC | -0.0382 ± 0.12
152 | ATACTCAC | 0.059 ± 0.036
153 | CGTACATC | -0.1577 ± 0.0014
154 | ATGAGGGG | -0.15 ± 0.014
155 | GAGTAAGC | -0.0325 ± 0.03
156 | CTGTCGCA | 0.235 ± 0.054
157 | ATAACGGC | 0.00512 ± 0.028
158 | ATTGCTTA | -0.0969 ± 0.034
159 | ACCAGAAT | 0.0132 ± 0.099
160 | CATAAACG | -0.0772 ± 0.033
161 | ACACATCG | 0.394 ± 0.014
162 | GGCGTCAA | 0.412 ± 0.018
163 | ATTTTGTG | 0.0651 ± 0.12
164 | ACCCGCAT | 0.0167 ± 0.085
165 | CCACAGCG | 0.00125 ± 0.027
166 | GCCCGCCA | 0.00722 ± 0.034
167 | CAGCTTAG | -0.103 ± 0.043
168 | ATTTGCAC | 0.239 ± 0.043
169 | CGCCCCAG | -0.0657 ± 0.038
170 | CCTTGATC | 0.0095 ± 0.041
171 | ACATGAAG | 0.0963 ± 0.011
172 | CACAATGG | -0.143 ± 0.003

From the supplement of paper PMC4166925
